Experimental data from PubChem BioAssay AID485360 (National Center for Advancing Translational Sciences (NCATS), 2010).
About 1,500 (0.65%) of roughly 230,000 compounds were called active. The shares of active, inactive and inconclusive entries below differ from those in the screen. Calls follow the shape of the dose curve; as a rule, active = well fitted inhibition curve with a large enough effect; inconclusive = small, poorly fitted or top-dose-only effect; inactive = no such curve, though single readings can be large or run the other way. Potencies beside an inconclusive call are fits to weak or partial responses and may not hold up.

Molecular target: Lethal(3)malignant brain tumor-like protein 1 (Homo sapiens) (UniProt Q9Y468)
Chain of UniProt Q9Y468 (Q9Y468 whole entry, looked up): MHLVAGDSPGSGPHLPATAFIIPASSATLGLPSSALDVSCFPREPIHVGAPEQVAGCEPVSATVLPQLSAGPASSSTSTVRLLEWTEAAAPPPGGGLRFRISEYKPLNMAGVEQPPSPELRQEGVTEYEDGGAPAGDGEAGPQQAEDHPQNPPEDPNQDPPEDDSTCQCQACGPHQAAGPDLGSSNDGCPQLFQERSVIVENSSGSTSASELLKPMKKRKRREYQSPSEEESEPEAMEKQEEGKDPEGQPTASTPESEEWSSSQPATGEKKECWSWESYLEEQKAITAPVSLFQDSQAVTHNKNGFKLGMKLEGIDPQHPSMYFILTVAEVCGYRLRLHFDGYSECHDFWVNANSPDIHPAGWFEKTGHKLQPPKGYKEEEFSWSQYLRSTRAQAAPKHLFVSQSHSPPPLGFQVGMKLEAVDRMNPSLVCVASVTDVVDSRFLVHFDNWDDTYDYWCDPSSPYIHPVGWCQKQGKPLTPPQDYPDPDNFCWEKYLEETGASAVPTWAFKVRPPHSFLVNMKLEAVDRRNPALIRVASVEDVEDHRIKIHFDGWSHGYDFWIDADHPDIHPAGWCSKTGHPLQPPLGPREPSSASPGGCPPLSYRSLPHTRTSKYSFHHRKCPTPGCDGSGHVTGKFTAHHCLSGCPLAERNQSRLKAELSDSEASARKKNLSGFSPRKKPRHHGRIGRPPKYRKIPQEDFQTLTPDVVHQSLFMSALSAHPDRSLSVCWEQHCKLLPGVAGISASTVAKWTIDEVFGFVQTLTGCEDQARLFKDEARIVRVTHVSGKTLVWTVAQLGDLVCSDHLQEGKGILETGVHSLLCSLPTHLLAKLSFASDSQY
Test: qHTS Assay for the Inhibitors of L3MBTL1; also: nearly all actives have a fitted effect of over 60% in size
Conditions: AlphaScreen L3MBTL1–H3K9me1 peptide binding; series mostly up to 57.1 µM
Outline: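 AlphaScreen assay: L3MBTL1 (50 nM final) was preincubated 30 min at room temperature with biotinylated H3(1-15)K9me1 peptide (75 nM final), then 30 min with library compounds; streptavidin donor and nickel chelate acceptor beads (10 ug/mL final) added, 30 min dark.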
Potency is read from the fitted curve at half-maximal effect; tags tell the direction and shape of the fitted curve.

Structure (SMILES) | Potency
CCCC(=O)C1=C(O)C(C(=O)OC)C(C)(C)CC1=Nc1cccc([N+](=O)[O-])c1 (configuration not stated) | inconclusive: 1.58 µM [inhibitor, single point]
O=c1ccn(CCc2c[nH]c3ccccc23)c2c1CCCC2 | inconclusive: 1 µM [inhibitor, full curve, poor fit]
CC1CCCCN1C(=O)Cn1cc(/C=C2/C(=O)Nc3ccccc32)c2ccccc21 (configuration not stated) | inconclusive: 39.8 µM [inhibitor, single point]
O=C(NCc1ccc(F)cc1)c1c2c(nc3ccccc13)CCC2 | inconclusive: 22.4 µM [inhibitor, partial curve]
c1ccc(-n2cc(CN3CCCC3)c(-c3ccc4c(c3)OCO4)n2)cc1 | inconclusive: 31.6 µM [inhibitor, single point]
CC(=O)CCc1oc2c([N+](=O)[O-])cccc2c1-c1ccc(C)o1 | inconclusive: 3.55 µM [inhibitor, full curve]
O=C(CSc1nncn1-c1ccccn1)Nc1cccc(Cl)c1 | inactive
CCn1c(-c2ccccc2)csc1=Nc1ccc(O)cc1 | inconclusive: 2.51 µM [inhibitor, single point]
CCCCN(C(=O)c1cc(S(=O)(=O)N2CCCCCC2)ccc1OC)c1c(N)n(CCC)c(=O)[nH]c1=O | inactive
CN(CC(=O)Nc1ccccc1C(F)(F)F)C(=O)CSc1nnc(-c2ccncc2)n1C | inconclusive: 1.12 µM [inhibitor, single point]
COc1ccc(-n2c(Cc3cccn3C)nnc2SCC(=O)N2CCC(C)CC2)cc1 | inactive
Cc1ccc(S(=O)(=O)/N=C(/Nc2ccccn2)c2ccc(Cl)cc2)cc1 | inconclusive: 7.08 µM [inhibitor, single point]
CCOc1ccc(NC(=O)CN2C(=O)C3CCCN3C2=O)cc1 (configuration not stated) | inactive
Cc1cc(C(=O)N/N=C/c2cc([N+](=O)[O-])ccc2O)c2ccccc2n1 | active: 17.8 µM
COc1cc2c(cc1OC)-c1cc(Nc3ccc(N(C)C)cc3)nc(=O)n1CC2 | inconclusive: 25.1 µM [inhibitor, single point]
Cc1[nH]n(-c2ccccc2)c(=S)c1C=Nc1ccc([N+](=O)[O-])cc1 | inactive
COc1ccc(C(=S)N2CCOCC2)cc1OC(=O)c1cc([N+](=O)[O-])c(C)c([N+](=O)[O-])c1 | inconclusive: 5.01 µM [inhibitor, single point]
Cc1cc(NC(=O)c2ccco2)ncc1NC(=O)Cc1ccccc1 | inconclusive: 39.8 µM [inhibitor, single point]
Cc1cc2ccccn2c1C(=S)NC(=O)c1ccccc1 | inconclusive: 17.8 µM [inhibitor, single point]
C[C@]12c3[nH]c4cc(-c5ccco5)ccc4c3CCN1C(=O)[C@@H](CC(=O)NCC13CC4CC(CC(C4)C1)C3)C[C@@H]2C(=O)N1CCOCC1 | inconclusive: 31.6 µM [inhibitor, single point]
Cc1ccc(N=C2NC(=O)/C(=C\c3ccsc3)S2)c(C)c1 | inactive

Structure (SMILES) | Potency
CN=C(Nc1cc(Cl)ccc1Cl)SC1CC(=O)N(c2ccc(C(=O)OC)cc2)C1=O (configuration not stated) | inconclusive: 28.2 µM [inhibitor, partial curve]
COCCNC(=O)c1cc(-c2ccccc2)nn1Cc1cc(C)no1 | inconclusive: 6.31 µM [inhibitor, single point]
Cc1ccc(NC(=O)CN(c2ccc3c(c2)OCO3)S(=O)(=O)c2c(C)n[nH]c2C)cc1 | inconclusive: 3.98 µM [inhibitor, single point]
O=C(Nc1cccc(Cl)c1)Nc1csc([N+](=O)[O-])c1 | inconclusive: 17.8 µM [inhibitor, partial curve]
Nc1cc(=O)[nH]c(SCC(=O)Nc2cc(S(=O)(=O)N3CCOCC3)ccc2Cl)n1 | inconclusive: 6.31 µM [inhibitor, partial curve, poor fit]
CC(C)NC(=O)N(C)C[C@H]1Oc2c(NC(=O)C3CC3)cccc2C(=O)N([C@H](C)CO)C[C@@H]1C | inactive
C=CCn1c(Cc2csc(N)n2)nnc1SCC(=O)Nc1ccc(C(=O)OCC)cc1 | inconclusive: 14.1 µM [inhibitor, partial curve]
COc1ccc(N=Nc2cc(C)c(O)c(CN3CCCCC3)c2)cc1 | inconclusive: 2.82 µM [inhibitor, full curve, poor fit]
Cc1cc2nnc(SCC(=O)N(C)C3CCS(=O)(=O)C3)n2c2ccccc12 (configuration not stated) | inconclusive: 0.316 µM [inhibitor, full curve]
O=C(Nc1ccc2c(c1)OCCO2)C1CCN(c2ncccn2)CC1 | inconclusive: 8.91 µM [inhibitor, full curve]
C=CCn1c(SCC(=O)c2ccc(O)c(O)c2)nnc1-c1cccc(C)c1 | inconclusive: 14.1 µM [inhibitor, partial curve]
Nc1cc(S(=O)(=O)O)cc([N+](=O)[O-])c1O | inconclusive: 35.5 µM [inhibitor, partial curve]
Cc1c(-c2nn(C)c(=O)c3ccccc23)oc2ccc(F)cc2c1=O | inconclusive: 0.794 µM [inhibitor, single point]
CCN(CC)C(=O)C1CCCN(Cc2cccc(F)c2)C1 (configuration not stated) | inactive
O=C(N/N=C/c1c(O)ccc2ccccc12)c1ccc(CO)nc1 | active: 3.55 µM
CC(/C=N/n1c(-c2cc(C)[nH]n2)n[nH]c1=S)=C\c1ccco1 | inconclusive: 25.1 µM [inhibitor, single point]
O=C(Cc1cccc2ccccc12)Nc1ccc(N2CCOCC2)cc1 | inactive
CNc1ccc(Br)cc(C(=O)/C=C/c2cc(OC)ccc2OC)c1=O | active: 14.1 µM
N#C/C(=C\c1c(Cl)cccc1Cl)c1nn(-c2ccccc2)c(-n2cccc2)c1C#N | inconclusive: 28.2 µM [inhibitor, single point]
CN(C)c1oc(-c2ccc(OCc3ccccc3)cc2)nc1C#N | inconclusive: 25.1 µM [inhibitor, partial curve, poor fit]
O=C(CCOc1cccc(Br)c1)Nc1ccc(F)c(S(=O)(=O)N2CCOCC2)c1 | inconclusive: 0.708 µM [inhibitor, single point]
